From US9359440B2, “Bispecific chimeric proteins comprising DARPins” (Samsung Electronics Co., Ltd., priority 2013, dated 2016)

Assays:
Conditions in all cases: ranking among huAbF46-H4-A1, -A2, -A3, -A5
[1] = biological target: T1, c-Met (Homo sapiens, UniProt P08581); test: Affinity for c-Met of anti-c-Met antibodies; type: binding
[2] = system: Akt; test: Akt phosphorylation by anti-c-Met antibodies; type: cell-based
[3] = biological target: T1, c-Met; test: c-Met degradation degree by anti-c-Met antibodies; type: cell-based

T1 sequence (P08581 25-1390): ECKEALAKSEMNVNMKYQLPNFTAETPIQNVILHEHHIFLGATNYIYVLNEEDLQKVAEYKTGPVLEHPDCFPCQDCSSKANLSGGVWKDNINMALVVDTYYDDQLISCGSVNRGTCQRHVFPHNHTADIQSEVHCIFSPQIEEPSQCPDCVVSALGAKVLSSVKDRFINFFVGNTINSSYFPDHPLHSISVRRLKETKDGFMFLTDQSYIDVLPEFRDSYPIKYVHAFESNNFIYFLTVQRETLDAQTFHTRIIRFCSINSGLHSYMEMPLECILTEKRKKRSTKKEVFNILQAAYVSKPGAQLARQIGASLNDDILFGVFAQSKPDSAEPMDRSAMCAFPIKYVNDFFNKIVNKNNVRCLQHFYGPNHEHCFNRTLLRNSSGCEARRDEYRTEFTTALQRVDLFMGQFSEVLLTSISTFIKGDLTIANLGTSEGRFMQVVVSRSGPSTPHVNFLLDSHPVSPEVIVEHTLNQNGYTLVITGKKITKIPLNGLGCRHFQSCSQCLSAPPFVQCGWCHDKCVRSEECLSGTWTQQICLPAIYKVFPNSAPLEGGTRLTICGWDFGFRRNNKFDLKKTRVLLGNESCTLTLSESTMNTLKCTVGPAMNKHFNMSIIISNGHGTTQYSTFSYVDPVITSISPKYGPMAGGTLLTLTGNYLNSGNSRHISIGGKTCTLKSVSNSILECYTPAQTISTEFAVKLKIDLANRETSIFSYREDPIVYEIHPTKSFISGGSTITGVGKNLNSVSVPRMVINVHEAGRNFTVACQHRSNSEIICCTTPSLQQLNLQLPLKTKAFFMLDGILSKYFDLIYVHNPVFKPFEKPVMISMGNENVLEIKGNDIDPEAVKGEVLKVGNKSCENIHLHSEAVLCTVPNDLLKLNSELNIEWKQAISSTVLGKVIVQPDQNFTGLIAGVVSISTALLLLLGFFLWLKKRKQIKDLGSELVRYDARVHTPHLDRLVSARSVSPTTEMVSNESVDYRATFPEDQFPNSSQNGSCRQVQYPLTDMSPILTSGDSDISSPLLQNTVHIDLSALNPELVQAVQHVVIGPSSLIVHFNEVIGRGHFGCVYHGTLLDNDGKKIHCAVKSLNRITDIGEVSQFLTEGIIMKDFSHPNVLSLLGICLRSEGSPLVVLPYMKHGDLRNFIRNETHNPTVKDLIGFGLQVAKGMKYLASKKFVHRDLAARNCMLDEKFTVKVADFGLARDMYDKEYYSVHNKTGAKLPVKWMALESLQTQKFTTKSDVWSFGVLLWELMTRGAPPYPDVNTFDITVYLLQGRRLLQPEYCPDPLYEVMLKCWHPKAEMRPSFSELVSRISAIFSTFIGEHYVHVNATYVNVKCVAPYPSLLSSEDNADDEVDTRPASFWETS

B1: huAbF46-H4-A1: affinity-matured humanized anti-c-Met antibody, L3-1 origin (antibody)
heavy: EVQLVESGGGLVQPGGSLRLSCAASGFTFTDYYMSWVRQAPGKGLEWLGFIRNKANGYTTEYSASVKGRFTISRDNSKNTLYLQMNSLRAEDTAVYYCARDNWFAYWGQGTLVTVSSASTKGPSVFPLAPSSKSTSGGTAALGCLVKDYFPEPVTVSWNSGALTSGVHTFPAVLQSSGLYSLSSVVTVPSSSLGTQTYICNVNHKPSNTKVDKKVEPKSCDCH[letters of human IgG1 Fc omitted]
light: DIQMTQSPSSLSASVGDRVTITCKSSQSLLASGNQNNYLAWHQQKPGKAPKMLIIWASTRVSGVPSRFSGSGSGTDFTLTISSLQPEDFATYYCQQSYSRPYTFGQGTKVEIKRTVAAPSVFIFPPSDEQLKSGTASVVCLLNNFYPREAKVQWKVDNALQSGNSQESVTEQDSKDSTYSLSSTLTLSKADYEKHKVYACEVTHQGLSSPVTKSFNRGEC
- affinity for c-Met among the four affinity-matured antibodies [1]: highest
- Akt phosphorylation among the four affinity-matured antibodies [2]: lowest
- c-Met degradation degree among the four affinity-matured antibodies [3]: lowest
